Measured values as given in the supplement of paper PMC8728848.
The other results are listed elsewhere or left out.

Experiments:
Test in all cases: glycan array binding signal (z-score within array); higher = stronger binding
Conditions in all cases: glycan notation: IUPAC condensed, linker removed
[1] = molecular target: Neu5Ac(a2-3)Gal(b1-4)GlcNAc(b1-2)Man(a1-3)[Neu5Ac(a2-6)Gal(b1-4)GlcNAc(b1-2)Man(a1-6)]Man(b1-4)GlcNAc(b1-4)GlcNAc
Procedure, shortened: (§1)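 Negative Z-scores can be read as non-binding. The Z-score is calculated within each array and then averaged across arrays of one protein sequence at different concentrations or buffers and across linkers. Arrays, 3228 in all, were curated from the Consortium for Functional Glycomics database and kept only where the protein sequence was available.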

[2] = molecular target: Neu5Ac(a2-3)Gal(b1-4)GlcNAc(b1-2)[Neu5Ac(a2-3)Gal(b1-4)GlcNAc(b1-4)]Man(a1-3)[GlcNAc(b1-4)][Neu5Ac(a2-3)Gal(b1-4)GlcNAc(b1-2)[Neu5Ac(a2-3)Gal(b1-4)GlcNAc(b1-6)]Man(a1-6)]Man(b1-4)GlcNAc(b1-4)GlcNAc
Procedure, shortened: as §1

[3] = molecular target: Neu5Ac(a2-3)Gal(b1-4)GlcNAc(b1-2)[Neu5Ac(a2-3)Gal(b1-4)GlcNAc(b1-4)]Man(a1-3)[GlcNAc(b1-4)][Neu5Ac(a2-3)Gal(b1-4)GlcNAc(b1-4)Man(a1-6)]Man(b1-4)GlcNAc(b1-4)GlcNAc
Procedure, shortened: as §1

[4] = molecular target: Neu5Ac(a2-3)Gal(b1-4)GlcNAc(b1-2)[Neu5Ac(a2-3)Gal(b1-4)GlcNAc(b1-6)]Man(a1-6)[Neu5Ac(a2-3)Gal(b1-4)GlcNAc(b1-2)Man(a1-3)][GlcNAc(b1-4)]Man(b1-4)GlcNAc(b1-4)GlcNAc
Procedure, shortened: as §1

[5] = molecular target: Neu5Ac(a2-3)Gal(b1-4)GlcNAc(b1-3)Gal
Procedure, shortened: as §1

[6] = molecular target: Neu5Ac(a2-3)Gal(b1-4)GlcNAc(b1-3)Gal(b1-3)GlcNAc
Procedure, shortened: as §1

[7] = molecular target: Neu5Ac(a2-3)Gal(b1-4)GlcNAc(b1-3)Gal(b1-4)GlcNAc
Procedure, shortened: as §1

[8] = molecular target: Neu5Ac(a2-3)Gal(b1-4)GlcNAc(b1-3)Gal(b1-4)GlcNAc(b1-2)Man(a1-3)[Neu5Ac(a2-3)Gal(b1-4)GlcNAc(b1-3)Gal(b1-4)GlcNAc(b1-2)Man(a1-6)]Man(b1-4)GlcNAc(b1-4)GlcNAc
Procedure, shortened: as §1

[9] = molecular target: Neu5Ac(a2-3)Gal(b1-4)GlcNAc(b1-3)Gal(b1-4)GlcNAc(b1-3)Gal(b1-4)GlcNAc
Procedure, shortened: as §1

[10] = molecular target: Neu5Ac(a2-3)Gal(b1-4)GlcNAc(b1-3)Gal(b1-4)GlcNAc(b1-3)Gal(b1-4)GlcNAc(b1-2)Man(a1-3)[Neu5Ac(a2-3)Gal(b1-4)GlcNAc(b1-3)Gal(b1-4)GlcNAc(b1-3)Gal(b1-4)GlcNAc(b1-2)Man(a1-6)]GalNAc
Procedure, shortened: as §1

[11] = molecular target: Neu5Ac(a2-3)Gal(b1-4)GlcNAc(b1-3)Gal(b1-4)GlcNAc(b1-3)GalNAc
Procedure, shortened: as §1

[12] = molecular target: Neu5Ac(a2-3)Gal(b1-4)GlcNAc(b1-3)Gal(b1-4)GlcNAc(b1-3)[Neu5Ac(a2-3)Gal(b1-4)GlcNAc(b1-3)Gal(b1-4)GlcNAc(b1-6)]GalNAc
Procedure, shortened: as §1

[13] = molecular target: Neu5Ac(a2-3)Gal(b1-4)GlcNAc(b1-3)Gal(b1-4)GlcNAc(b1-6)[Gal(b1-3)]GalNAc
Procedure, shortened: as §1

[14] = molecular target: Neu5Ac(a2-3)Gal(b1-4)GlcNAc(b1-3)Gal(b1-4)[Fuc(a1-3)]GlcNAc
Procedure, shortened: as §1

[15] = molecular target: Neu5Ac(a2-3)Gal(b1-4)GlcNAc(b1-3)GalNAc
Procedure, shortened: as §1

[16] = molecular target: Neu5Ac(a2-3)Gal(b1-4)GlcNAc(b1-3)[Neu5Ac(a2-3)Gal(b1-4)GlcNAc(b1-6)]GalNAc
Procedure, shortened: as §1

[17] = molecular target: Neu5Ac(a2-3)Gal(b1-4)GlcNAc(b1-6)GalNAc
Procedure, shortened: as §1

[18] = molecular target: Neu5Ac(a2-3)Gal(b1-4)GlcNAc(b1-6)[Gal(b1-3)]GalNAc
Procedure, shortened: as §1

[19] = molecular target: Neu5Ac(a2-3)Gal(b1-4)GlcNAc(b1-6)[Neu5Ac(a2-3)Gal(b1-3)]GalNAc
Procedure, shortened: as §1

[20] = molecular target: Neu5Ac(a2-3)Gal(b1-4)GlcNAc6S
Procedure, shortened: as §1

[21] = molecular target: Neu5Ac(a2-3)Gal(b1-4)[Fuc(a1-3)]GlcNAc
Procedure, shortened: as §1

[22] = molecular target: Neu5Ac(a2-3)Gal(b1-4)[Fuc(a1-3)]GlcNAc(b1-2)Man
Procedure, shortened: as §1

[23] = molecular target: Neu5Ac(a2-3)Gal(b1-4)[Fuc(a1-3)]GlcNAc(b1-3)Gal
Procedure, shortened: as §1

[24] = molecular target: Neu5Ac(a2-3)Gal(b1-4)[Fuc(a1-3)]GlcNAc(b1-3)Gal(b1-4)GlcNAc
Procedure, shortened: as §1

[25] = molecular target: Neu5Ac(a2-3)Gal(b1-4)[Fuc(a1-3)]GlcNAc(b1-3)Gal(b1-4)[Fuc(a1-3)]GlcNAc(b1-3)Gal(b1-4)[Fuc(a1-3)]GlcNAc
Procedure, shortened: as §1

[26] = molecular target: Neu5Ac(a2-3)Gal(b1-4)[Fuc(a1-3)]GlcNAc(b1-3)GalNAc
Procedure, shortened: as §1

[27] = molecular target: Neu5Ac(a2-3)Gal(b1-4)[Fuc(a1-3)]GlcNAc(b1-6)[Gal(b1-3)]GalNAc
Procedure, shortened: as §1

[28] = molecular target: Neu5Ac(a2-3)Gal(b1-4)[Fuc(a1-3)]GlcNAc(b1-6)[Neu5Ac(a2-3)Gal(b1-3)]GalNAc
Procedure, shortened: as §1

[29] = molecular target: Neu5Ac(a2-3)Gal(b1-4)[Fuc(a1-3)]GlcNAc6S
Procedure, shortened: as §1

[30] = molecular target: Neu5Ac(a2-3)Gal6S(b1-4)GlcNAc
Procedure, shortened: as §1

[31] = molecular target: Neu5Ac(a2-3)Gal6S(b1-4)[Fuc(a1-3)]GlcNAc
Procedure, shortened: as §1

Neu5Ac(a2-3)GalNAc = molecular target: Neu5Ac(a2-3)GalNAc
Procedure, shortened: as §1

[32] = molecular target: Neu5Ac(a2-3)GalNAc(b1-4)GlcNAc
Procedure, shortened: as §1

[33] = molecular target: Neu5Ac(a2-3)[GalNAc(b1-4)]Gal(b1-4)Glc
Procedure, shortened: as §1

[34] = molecular target: Neu5Ac(a2-3)[GalNAc(b1-4)]Gal(b1-4)GlcNAc
Procedure, shortened: as §1

[35] = molecular target: Neu5Ac(a2-3)[GalNAc(b1-4)]Gal(b1-4)GlcNAc(b1-3)GalNAc
Procedure, shortened: as §1

[36] = molecular target: Neu5Ac(a2-3)[Neu5Ac(a2-6)]GalNAc
Procedure, shortened: as §1

Neu5Ac(a2-6)Gal = molecular target: Neu5Ac(a2-6)Gal
Procedure, shortened: as §1

[37] = molecular target: Neu5Ac(a2-6)Gal(b1-3)GlcNAc(b1-3)[Gal(b1-4)GlcNAc(b1-6)]Gal(b1-4)Glc
Procedure, shortened: as §1

Neu5Ac(a2-6)Gal(b1-4)Glc = molecular target: Neu5Ac(a2-6)Gal(b1-4)Glc
Procedure, shortened: as §1

[38] = molecular target: Neu5Ac(a2-6)Gal(b1-4)GlcNAc
Procedure, shortened: as §1

[39] = molecular target: Neu5Ac(a2-6)Gal(b1-4)GlcNAc(b1-2)Man
Procedure, shortened: as §1

[40] = molecular target: Neu5Ac(a2-6)Gal(b1-4)GlcNAc(b1-2)Man(a1-3)Man(b1-4)GlcNAc(b1-4)GlcNAc
Procedure, shortened: as §1

[41] = molecular target: Neu5Ac(a2-6)Gal(b1-4)GlcNAc(b1-2)Man(a1-3)[Gal(b1-4)GlcNAc(b1-2)Man(a1-6)]Man(b1-4)GlcNAc(b1-4)GlcNAc
Procedure, shortened: as §1

[42] = molecular target: Neu5Ac(a2-6)Gal(b1-4)GlcNAc(b1-2)Man(a1-3)[GlcNAc(b1-2)Man(a1-6)]Man(b1-4)GlcNAc(b1-4)GlcNAc
Procedure, shortened: as §1

B1: Banana lectin (Musa acuminata) (protein)
chain: MNGAIKVGAWGGNGGSAFDMGPAYRIISVKIFSGDVVDAVDVTFTYYGKTETRHFGGSGGTPHEIVLQEGEYLVGMKGEFGNYHGVVVVGKLGFSTNKKSYGPFGNTGGTPFSLPIAAGKISGFFGRGGDFIDAIGVYLEP
glycan array binding signal (z-score) [1]: -0.18
glycan array binding signal (z-score) [2]: -0.193
glycan array binding signal (z-score) [3]: -0.194
glycan array binding signal (z-score) [4]: -0.2
glycan array binding signal (z-score) [5]: -0.194
glycan array binding signal (z-score) [6]: -0.195
glycan array binding signal (z-score) [7]: -0.195
glycan array binding signal (z-score) [8]: -0.172
glycan array binding signal (z-score) [9]: -0.196
glycan array binding signal (z-score) [10]: -0.119
glycan array binding signal (z-score) [11]: -0.193
glycan array binding signal (z-score) [12]: -0.179
glycan array binding signal (z-score) [13]: -0.195
glycan array binding signal (z-score) [14]: -0.195
glycan array binding signal (z-score) [15]: -0.193
glycan array binding signal (z-score) [16]: -0.193
glycan array binding signal (z-score) [17]: -0.189
glycan array binding signal (z-score) [18]: -0.193
glycan array binding signal (z-score) [19]: -0.194
glycan array binding signal (z-score) [20]: -0.193
glycan array binding signal (z-score) [21]: -0.195
glycan array binding signal (z-score) [22]: -0.193
glycan array binding signal (z-score) [23]: -0.196
glycan array binding signal (z-score) [24]: -0.186
glycan array binding signal (z-score) [25]: -0.168
glycan array binding signal (z-score) [26]: -0.175
glycan array binding signal (z-score) [27]: -0.191
glycan array binding signal (z-score) [28]: -0.184
glycan array binding signal (z-score) [29]: -0.195
glycan array binding signal (z-score) [30]: -0.196
glycan array binding signal (z-score) [31]: -0.194
glycan array binding signal (z-score) (Neu5Ac(a2-3)GalNAc): -0.193
glycan array binding signal (z-score) [32]: -0.193
glycan array binding signal (z-score) [33]: -0.193
glycan array binding signal (z-score) [34]: -0.194
glycan array binding signal (z-score) [35]: -0.199
glycan array binding signal (z-score) [36]: -0.193
glycan array binding signal (z-score) (Neu5Ac(a2-6)Gal): -0.193
glycan array binding signal (z-score) [37]: -0.194
glycan array binding signal (z-score) (Neu5Ac(a2-6)Gal(b1-4)Glc): -0.197
glycan array binding signal (z-score) [38]: -0.195
glycan array binding signal (z-score) [39]: -0.191
glycan array binding signal (z-score) [40]: -0.179
glycan array binding signal (z-score) [41]: -0.142
glycan array binding signal (z-score) [42]: -0.102
